# This sample is rich in variants without activity.
# B1: TPR 5TU (parent)
# chain: GGAUCUUCUCGAUCUAACAAAAAAGACAAAUCUGCCACAAAGCUUGAGAGCAUCUUCGGAUGCAGAGGCGGCAGCCUUCGGUGGCGCGAUAGCGCCAACGUUCUCAACUAUGACACGCAAAACGCGUGCUCCGUUGAAUGGAGUUUAUCAUG
# Variants of: B1
# Test: polymerase ribozyme fitness, log enrichment relative to wild type (log ratio); higher = more active; in vitro selection for triplet polymerase activity
# In short: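 The heterodimeric triplet polymerase ribozyme's subunits were each mutagenized into PCR-built libraries and transcribed. Every library was selected once, in triplicate, by annealing with a biotinylated primer, the partner subunit and triplets, incubating frozen at −7 °C, gel-excising extended constructs, capturing on streptavidin beads and running RT-PCR. Input and output libraries were Illumina-sequenced, with genotypes kept only at ≥10 input reads and ≥1 read per output. Fitness, from inverse-variance-weighted replicate averages, is the base-2 logarithm of genotype enrichment over wild-type enrichment.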
row,Variant,polymerase ribozyme fitness (log ratio)
1,A3G C36U G80U C95A,≤ -4.2
2,U4G A26U A66U G83A G88C A110C A121C G126A,≤ -4.2
3,U4C G58C G84A G126C G133C A138U,≤ -4.2
4,A3U C8G C54G G71A C93G U146G,≤ -4.2
5,A3G C38U U45A U56A G58C G59U C75A U90C C93U C103G A138C,≤ -4.2
6,U4C C5U A12C G25C A40U G58C G133U,≤ -4.2
7,U4A A60U G86A A107G A122C,≤ -4.2
8,U4G U44G G94A C105G C118U U127A G128A U135G A137U,≤ -4.2
9,U4A G34U A60G G71C G141C,≤ -4.2
10,U4G C69G G143U,≤ -4.2
11,A3G C14G U55A U56A C85U,-4.18
12,U4C G46U C87G,≤ -4.2
13,A3G C51A U53G G58A A89U C96A A142C,≤ -4.2
14,A3U U4G G42A U82G C96A A113C,≤ -4.2
15,U4C U7A C72G U144A,≤ -4.2
16,U4C G88C U104A A107G,≤ -4.2
17,A3G C5A A26C C87A,≤ -4.2
18,A3U A24G C36U U56A G59A,≤ -4.2
19,A3U A40U G50C G100A U111C U145A,≤ -4.2
20,A3U A21U G50U G58A U77A G100U A137G,≤ -4.2
21,A3C U4G G58C C93U C149U,-3.55

row,Variant,polymerase ribozyme fitness (log ratio)
1,A3G U56A G58C U61A G86U C87A G100U,≤ -4.2
2,U4G A60U A64G G68A C93A G140C G143A,≤ -4.2
3,U4C G11U G42C G48A U53G C57G G81U C85U,≤ -4.2
4,A3U A17U C43U C87G G88A,≤ -4.2
5,A3U G86U C105G G136U,≤ -4.2
6,A3U U45G C87U U90G C114G A138U G141C,≤ -4.2
7,U4A C132G U139G,-3.71
8,U4C A16G C18A A28C A30C C43U U53A C75G A97G C103A A119U U144C,≤ -4.2
9,A3U A28C G84A G117U A119U G124U,≤ -4.2
10,A3U G58U U78G C79U G80A C85U C96U A106G A147C,≤ -4.2
11,U4G C5G U33G U101C A150C,≤ -4.2
12,U4G U56A A60C C76G A91C C95U A142C,≤ -4.2
13,A3C U55G C87G,≤ -4.2
14,U4C A19U G65A G83U C87A U127A,≤ -4.2
15,C5A A17U A24U A26U G50C G140C,≤ -4.2
16,A3U A41U C85U C118U A119C U139G G141A,≤ -4.2
17,U4C C10U U56G A60U G92U,-3.76
18,U4A,-0.014
19,U4C,0.371
20,U4A U6A C36A G46C A49C C99G A137C U145C,≤ -4.2
21,A3U A23G C38A G80U U82C,≤ -4.2

row,Variant,polymerase ribozyme fitness (log ratio)
1,C5A A17U C35U G71C G84U C125A A138G,≤ -4.2
2,U4C C5G A20U,-1.25
3,U4C A20C A150G U151A,≤ -4.2
4,U4A U33G C69A C114A C123G U145C,≤ -4.2
5,U4C U31G G50C C51A G58U C76A G83A,≤ -4.2
6,A3U A91C,-3.34
7,A3U A22G C43U G68A U78G G92A A107U A110G A113G U151C,≤ -4.2
8,A3U C51U U56G G58C G59A A73G,-3.64
9,A3G A22G U45G,≤ -4.2
10,A3U A17C G94C,-0.825
11,U4C G42A A49C G50C C51U C79G A91U A121G,≤ -4.2
12,A3G U77A C79U C85U C96U C125G A138G,≤ -4.2
13,A3G G70A C96G C99U U127C,≤ -4.2
14,A3G G25C A41C A49C U56A G86A U101G,≤ -4.2
15,U4G C35U G83C G124U U146C,-2.43
16,A3C U4A U6C U15C A17G C38U C54U C72U G86U U127G,≤ -4.2
17,U4A A30G G42U C43G G48A G94A,≤ -4.2
18,U4G A12G A17G C93U G141C,-3.94
19,A3U A47C C105U A120C G124A,-1.78
20,A3C U4A U6C U15C A17G C38U C54U C72U G86U C95U G126C G136C U139A G152A,≤ -4.2
21,U4C G50A G83A C87A A91C G92A U146A,≤ -4.2

row,Variant,polymerase ribozyme fitness (log ratio)
1,A3G A47U G88A A121C G140A,≤ -4.2
2,U4C C32U U144G A150G,≤ -4.2
3,A3U U61G C95U,-1.39
4,A3G C8A U44A A47C U56A G84C C87G,≤ -4.2
5,U4A A24U U56G U61G A64C G65A A66G G88A C96U C105G,≤ -4.2
6,A3U U15G C51A G84U U151G,≤ -4.2
7,A3G G94U C103U U127C U134C G136A,-3.9
8,A3U C36U G67U C95A,≤ -4.2
9,U4C A20U C85A A110G U135C G136U G143C,≤ -4.2
10,U4G G25U A30U A39U U55A U109C U130G,≤ -4.2
11,A3U A21U G58C G68C U77C U144C,≤ -4.2
12,U4C A40G G84U C96U U151A,≤ -4.2
13,A3U C8A A17G U56A G59A C85A A120G,≤ -4.2
14,U4C U9G A12U A23C A30U U45G C79U G88A A121G,≤ -4.2
15,A3G A40U C69U G84C G143C,≤ -4.2
16,U4G U55G,-0.607
17,U4G C57U G59C C69A G84C C85A,≤ -4.2
18,U4G U56G C85A G141C,-2.61
19,A3U C35A C108G,≤ -4.2
20,A3G C18U C27G A28U U78A,≤ -4.2
